# Measured values as given in the supplement of paper PMC8728848.
# Some of the results follow.
# B1: Epa1to9 (Candida glabrata) (protein)
# chain: MGSSHHHHHHSSGLVPRGSHMTSSNDISLASKDPTTFPLGCSPDITTPKKGLSMELYSYDFRKKGSYPCWDAAYLDPNYPRTGYKSHRLLAKVDGVTGNINFYYHATKGCTPQLGHLPASYNYPKPLTMTNFTMLLYGYFRPKVTGFHTFTISADDLLFVNFGAGNAFDCCRRDSSADHFGNYQAYAIWGSKTAKDELTVHLDAGVYYPIRLFYNNRDYHGALSFTFKTESNENTVSDFSEYFFSLDDTEEGCPGLISYD
# Legend:
# Experiment in all cases: glycan array binding signal (z-score within array); higher = stronger binding
# Details in all cases: glycan notation: IUPAC condensed, linker removed
# Glc(b1-4)Glc = target: Glc(b1-4)Glc
# Summary of the method: (§1)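 The binding signal is a Z-score computed within each array. Data were drawn from 3228 arrays in the Consortium for Functional Glycomics database, restricted to those with a known protein sequence. Scores were averaged over arrays of the same protein sequence at different concentrations or buffers, and over linkers, and negative values can be taken as non-binding.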
# Glc(b1-6)Glc = target: Glc(b1-6)Glc
# Summary of the method: as §1
# GlcA(b1-3)Gal = target: GlcA(b1-3)Gal
# Summary of the method: as §1
# GlcA(b1-3)GlcNAc = target: GlcA(b1-3)GlcNAc
# Summary of the method: as §1
# GlcA(b1-6)Gal = target: GlcA(b1-6)Gal
# Summary of the method: as §1
# [1] = target: GlcA3S(b1-3)Gal(b1-4)GlcNAc(b1-2)Man
# Summary of the method: as §1
# [2] = target: GlcA3S(b1-3)Gal(b1-4)GlcNAc(b1-3)Gal(b1-4)Glc
# Summary of the method: as §1
# [3] = target: GlcNAc(a1-3)Gal(b1-4)GlcNAc
# Summary of the method: as §1
# [4] = target: GlcNAc(a1-4)Gal(b1-3)GlcNAc
# Summary of the method: as §1
# [5] = target: GlcNAc(a1-4)Gal(b1-4)GalNAc
# Summary of the method: as §1
# [6] = target: GlcNAc(a1-4)Gal(b1-4)GlcNAc
# Summary of the method: as §1
# [7] = target: GlcNAc(a1-4)Gal(b1-4)GlcNAc(b1-3)Gal(b1-4)Glc
# Summary of the method: as §1
# [8] = target: GlcNAc(a1-4)Gal(b1-4)GlcNAc(b1-3)Gal(b1-4)GlcNAc
# Summary of the method: as §1
# [9] = target: GlcNAc(a1-4)Gal(b1-4)GlcNAc(b1-3)Gal(b1-4)GlcNAc(b1-3)Gal(b1-4)GlcNAc
# Summary of the method: as §1
# [10] = target: GlcNAc(a1-4)Gal(b1-4)GlcNAc(b1-3)Gal(b1-4)[Fuc(a1-3)]GlcNAc(b1-3)Gal(b1-4)[Fuc(a1-3)]GlcNAc
# Summary of the method: as §1
# [11] = target: GlcNAc(a1-6)Gal(b1-4)GlcNAc
# Summary of the method: as §1
# [12] = target: GlcNAc(b1-2)Gal(b1-3)GalNAc
# Summary of the method: as §1
# [13] = target: GlcNAc(b1-2)Man(a1-3)[GlcNAc(b1-2)Man(a1-6)]Man(b1-4)GlcNAc(b1-4)GlcNAc
# Summary of the method: as §1
# [14] = target: GlcNAc(b1-2)Man(a1-3)[GlcNAc(b1-2)Man(a1-6)]Man(b1-4)GlcNAc(b1-4)[Fuc(a1-6)]GlcNAc
# Summary of the method: as §1
# [15] = target: GlcNAc(b1-2)Man(a1-3)[GlcNAc(b1-4)][GlcNAc(b1-2)Man(a1-6)]Man(b1-4)GlcNAc(b1-4)GlcNAc
# Summary of the method: as §1
# [16] = target: GlcNAc(b1-2)Man(a1-3)[GlcNAc(b1-4)][GlcNAc(b1-2)Man(a1-6)]Man(b1-4)GlcNAc(b1-4)[Fuc(a1-6)]GlcNAc
# Summary of the method: as §1
# [17] = target: GlcNAc(b1-2)[GlcNAc(b1-4)]Man(a1-3)[GlcNAc(b1-2)Man(a1-6)]Man(b1-4)GlcNAc(b1-4)GlcNAc
# Summary of the method: as §1
# [18] = target: GlcNAc(b1-2)[GlcNAc(b1-4)]Man(a1-3)[GlcNAc(b1-4)][GlcNAc(b1-2)Man(a1-6)]Man(b1-4)GlcNAc(b1-4)GlcNAc
# Summary of the method: as §1
# [19] = target: GlcNAc(b1-2)[GlcNAc(b1-4)]Man(a1-3)[GlcNAc(b1-4)][GlcNAc(b1-2)[GlcNAc(b1-6)]Man(a1-6)]Man(b1-4)GlcNAc(b1-4)GlcNAc
# Summary of the method: as §1
# [20] = target: GlcNAc(b1-2)[GlcNAc(b1-4)]Man(a1-3)[GlcNAc(b1-4)][GlcNAc(b1-2)[GlcNAc(b1-6)]Man(a1-6)]Man(b1-4)GlcNAc(b1-4)[Fuc(a1-6)]GlcNAc
# Summary of the method: as §1
# [21] = target: GlcNAc(b1-2)[GlcNAc(b1-6)]Man(a1-6)[GlcNAc(b1-2)Man(a1-3)]Man(b1-4)GlcNAc(b1-4)GlcNAc
# Summary of the method: as §1
# [22] = target: GlcNAc(b1-2)[GlcNAc(b1-6)]Man(a1-6)[GlcNAc(b1-2)Man(a1-3)]Man(b1-4)GlcNAc(b1-4)[Fuc(a1-6)]GlcNAc
# Summary of the method: as §1
# [23] = target: GlcNAc(b1-2)[GlcNAc(b1-6)]Man(a1-6)[GlcNAc(b1-4)][GlcNAc(b1-2)Man(a1-3)]Man(b1-4)GlcNAc(b1-4)GlcNAc
# Summary of the method: as §1
# GlcNAc(b1-3)Fuc = target: GlcNAc(b1-3)Fuc
# Summary of the method: as §1
# GlcNAc(b1-3)Gal = target: GlcNAc(b1-3)Gal
# Summary of the method: as §1
# [24] = target: GlcNAc(b1-3)Gal(b1-3)GalNAc
# Summary of the method: as §1
# GlcNAc(b1-3)Gal(b1-4)Glc = target: GlcNAc(b1-3)Gal(b1-4)Glc
# Summary of the method: as §1
# [25] = target: GlcNAc(b1-3)Gal(b1-4)GlcNAc
# Summary of the method: as §1
# [26] = target: GlcNAc(b1-3)Gal(b1-4)GlcNAc(b1-2)Man(a1-3)[GlcNAc(b1-3)Gal(b1-4)GlcNAc(b1-2)Man(a1-6)]Man(b1-4)GlcNAc(b1-4)GlcNAc
# Summary of the method: as §1
# [27] = target: GlcNAc(b1-3)Gal(b1-4)GlcNAc(b1-2)Man(a1-3)[GlcNAc(b1-3)Gal(b1-4)GlcNAc(b1-2)Man(a1-6)]Man(b1-4)GlcNAc(b1-4)[Fuc(a1-6)]GlcNAc
# Summary of the method: as §1
# [28] = target: GlcNAc(b1-3)Gal(b1-4)GlcNAc(b1-2)[GlcNAc(b1-3)Gal(b1-4)GlcNAc(b1-6)]Man(a1-6)[GlcNAc(b1-3)Gal(b1-4)GlcNAc(b1-2)Man(a1-3)]Man(b1-4)GlcNAc(b1-4)GlcNAc
# Summary of the method: as §1
# [29] = target: GlcNAc(b1-3)Gal(b1-4)GlcNAc(b1-3)Gal(b1-4)GlcNAc
# Summary of the method: as §1
# [30] = target: GlcNAc(b1-3)Gal(b1-4)GlcNAc(b1-3)Gal(b1-4)GlcNAc(b1-2)Man(a1-3)[GlcNAc(b1-3)Gal(b1-4)GlcNAc(b1-3)Gal(b1-4)GlcNAc(b1-2)Man(a1-6)]Man(b1-4)GlcNAc(b1-4)GlcNAc
# Summary of the method: as §1
# [31] = target: GlcNAc(b1-3)Gal(b1-4)GlcNAc(b1-3)Gal(b1-4)GlcNAc(b1-2)Man(a1-3)[GlcNAc(b1-3)Gal(b1-4)GlcNAc(b1-3)Gal(b1-4)GlcNAc(b1-2)Man(a1-6)]Man(b1-4)GlcNAc(b1-4)[Fuc(a1-6)]GlcNAc
# Summary of the method: as §1
# [32] = target: GlcNAc(b1-3)Gal(b1-4)GlcNAc(b1-3)Gal(b1-4)GlcNAc(b1-2)[GlcNAc(b1-3)Gal(b1-4)GlcNAc(b1-3)Gal(b1-4)GlcNAc(b1-6)]Man(a1-6)[GlcNAc(b1-3)Gal(b1-4)GlcNAc(b1-3)Gal(b1-4)GlcNAc(b1-2)Man(a1-3)]Man(b1-4)GlcNAc(b1-4)[Fuc(a1-6)]GlcNAc
# Summary of the method: as §1
# [33] = target: GlcNAc(b1-3)Gal(b1-4)GlcNAc(b1-3)Gal(b1-4)GlcNAc(b1-3)Gal(b1-4)GlcNAc(b1-2)Man(a1-3)[GlcNAc(b1-3)Gal(b1-4)GlcNAc(b1-3)Gal(b1-4)GlcNAc(b1-3)Gal(b1-4)GlcNAc(b1-2)Man(a1-6)]Man(b1-4)GlcNAc(b1-4)GlcNAc
# Summary of the method: as §1
# [34] = target: GlcNAc(b1-3)Gal(b1-4)GlcNAc(b1-3)Gal(b1-4)GlcNAc(b1-3)Gal(b1-4)GlcNAc(b1-2)Man(a1-3)[GlcNAc(b1-3)Gal(b1-4)GlcNAc(b1-3)Gal(b1-4)GlcNAc(b1-3)Gal(b1-4)GlcNAc(b1-2)Man(a1-6)]Man(b1-4)GlcNAc(b1-4)[Fuc(a1-6)]GlcNAc
# Summary of the method: as §1
# [35] = target: GlcNAc(b1-3)Gal(b1-4)GlcNAc(b1-3)Gal(b1-4)GlcNAc(b1-3)Gal(b1-4)GlcNAc(b1-2)[GlcNAc(b1-3)Gal(b1-4)GlcNAc(b1-3)Gal(b1-4)GlcNAc(b1-3)Gal(b1-4)GlcNAc(b1-6)]Man(a1-6)[GlcNAc(b1-3)Gal(b1-4)GlcNAc(b1-3)Gal(b1-4)GlcNAc(b1-3)Gal(b1-4)GlcNAc(b1-2)Man(a1-3)]Man(b1-4)GlcNAc(b1-4)[Fuc(a1-6)]GlcNAc
# Summary of the method: as §1
# [36] = target: GlcNAc(b1-3)Gal(b1-4)GlcNAc(b1-3)Gal(b1-4)GlcNAc(b1-3)Gal(b1-4)GlcNAc(b1-3)Gal(b1-4)GlcNAc(b1-2)Man(a1-3)[GlcNAc(b1-3)Gal(b1-4)GlcNAc(b1-3)Gal(b1-4)GlcNAc(b1-3)Gal(b1-4)GlcNAc(b1-3)Gal(b1-4)GlcNAc(b1-2)Man(a1-6)]Man(b1-4)GlcNAc(b1-4)GlcNAc
# Summary of the method: as §1
# [37] = target: GlcNAc(b1-3)Gal(b1-4)GlcNAc(b1-3)Gal(b1-4)GlcNAc(b1-3)Gal(b1-4)GlcNAc(b1-3)Gal(b1-4)GlcNAc(b1-2)Man(a1-3)[GlcNAc(b1-3)Gal(b1-4)GlcNAc(b1-3)Gal(b1-4)GlcNAc(b1-3)Gal(b1-4)GlcNAc(b1-3)Gal(b1-4)GlcNAc(b1-2)Man(a1-6)]Man(b1-4)GlcNAc(b1-4)[Fuc(a1-6)]GlcNAc
# Summary of the method: as §1
binder,measurement,setting,value
B1,glycan array binding signal (z-score),Glc(b1-4)Glc,-0.362
same,glycan array binding signal (z-score),Glc(b1-6)Glc,-0.333
same,glycan array binding signal (z-score),GlcA(b1-3)Gal,-0.315
same,glycan array binding signal (z-score),GlcA(b1-3)GlcNAc,-0.346
same,glycan array binding signal (z-score),GlcA(b1-6)Gal,0.861
same,glycan array binding signal (z-score),[1],-0.337
same,glycan array binding signal (z-score),[2],-0.35
same,glycan array binding signal (z-score),[3],-0.355
same,glycan array binding signal (z-score),[4],-0.4
same,glycan array binding signal (z-score),[5],-0.387
same,glycan array binding signal (z-score),[6],-0.312
same,glycan array binding signal (z-score),[7],-0.501
same,glycan array binding signal (z-score),[8],-0.361
same,glycan array binding signal (z-score),[9],-0.347
same,glycan array binding signal (z-score),[10],-0.308
same,glycan array binding signal (z-score),[11],1.09
same,glycan array binding signal (z-score),[12],-0.313
same,glycan array binding signal (z-score),[13],-0.366
same,glycan array binding signal (z-score),[14],-0.348
same,glycan array binding signal (z-score),[15],-0.347
same,glycan array binding signal (z-score),[16],-0.354
same,glycan array binding signal (z-score),[17],-0.295
same,glycan array binding signal (z-score),[18],-0.347
same,glycan array binding signal (z-score),[19],-0.358
same,glycan array binding signal (z-score),[20],-0.351
same,glycan array binding signal (z-score),[21],-0.344
same,glycan array binding signal (z-score),[22],-0.342
same,glycan array binding signal (z-score),[23],-0.352
same,glycan array binding signal (z-score),GlcNAc(b1-3)Fuc,-0.343
same,glycan array binding signal (z-score),GlcNAc(b1-3)Gal,-0.358
same,glycan array binding signal (z-score),[24],-0.301
same,glycan array binding signal (z-score),GlcNAc(b1-3)Gal(b1-4)Glc,-0.338
same,glycan array binding signal (z-score),[25],-0.351
same,glycan array binding signal (z-score),[26],-0.345
same,glycan array binding signal (z-score),[27],-0.324
same,glycan array binding signal (z-score),[28],-0.302
same,glycan array binding signal (z-score),[29],-0.315
same,glycan array binding signal (z-score),[30],-0.338
same,glycan array binding signal (z-score),[31],-0.333
same,glycan array binding signal (z-score),[32],-0.328
same,glycan array binding signal (z-score),[33],-0.341
same,glycan array binding signal (z-score),[34],-0.33
same,glycan array binding signal (z-score),[35],-0.33
same,glycan array binding signal (z-score),[36],-0.342
same,glycan array binding signal (z-score),[37],-0.288
